The supplement of paper PMC10126150
Values marked as one replicate rest on one cluster of the flow cell; about a third of the high ones do not repeat.
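Note: ATP exposure 15 min at 22 °C before imaging.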

What follows are sequences tested on ATP (assay: switch fluorescence ratio, 500 uM ATP over buffer (Cy3 cluster intensity, sum of 5 cycles each) (fold (ratio)); higher = stronger signal-on switching upon ATP binding; sequences stand for … in TCGTCGGCAGCGTCAGATGTGTATAAGAGACAGTTTTTTTTTTTTTTTTTTTTTTTTT…TC). Details: aptamer strand: ATP DNA aptamer (quencher-CACCTGGGGGAGTATTGCGGAGGAAGG + anchor), 100 nM annealed; ATP concentration: 500 uM; one replicate.
Method in brief: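 Values give the fluorescence ratio for each switch-domain sequence, averaged from per-cluster ratios of summed target-cycle to summed buffer-cycle Cy3 intensity. The Cy3-labelled switching-strand clusters sat on a modified Illumina MiSeq flow-cell, were annealed to 100 nM quencher-labelled ATP aptamer, and were imaged in selection buffer, then after 15 min with 500 uM ATP at 22 °C. Five cycles ran with NaOH stripping and re-annealing between them, and clusters outside 100-1000 RFU were excluded.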
CCGTATTAAA was tested, and the switch fluorescence ratio was 1. With CCGTCACCCC the switch fluorescence ratio was 1.43. In the case of CCGTCAGGT, the switch fluorescence ratio was 1.01. In the case of CCGTCTAGGG, the switch fluorescence ratio was 1.05. CCGTCTCCGT was tested, and the switch fluorescence ratio was 1.68. In the case of CCGTGAAACC, the switch fluorescence ratio was 0.988. In the case of CCGTGAGAAC, the switch fluorescence ratio was 1.76. Sequence CCGTGATTGG has a switch fluorescence ratio of 1.19. Sequence CCGTGCAGGT has a switch fluorescence ratio of 1.2. CCGTGGCTGA gave a switch fluorescence ratio of 1.04. CCGTGGGGGA gave a switch fluorescence ratio of 1.07. CCGTGGTGTG was tested, and the switch fluorescence ratio was 1.07. Work on CCGTGTAGTG yielded a switch fluorescence ratio of 1.01. CCGTGTGAGG gave a switch fluorescence ratio of 0.979. Work on CCGTTAACGT yielded a switch fluorescence ratio of 1.02. Work on CCGTTAGACT yielded a switch fluorescence ratio of 1.83. CCGTTATGGA was tested, and the switch fluorescence ratio was 0.97. In the case of CCGTTATGTA, the switch fluorescence ratio was 1.05. Work on CCGTTCAGCG yielded a switch fluorescence ratio of 1.07. Work on CCGTTCATGC yielded a switch fluorescence ratio of 2.78. Work on CCGTTGATC yielded a switch fluorescence ratio of 1.18. CCGTTGATGG gave a switch fluorescence ratio of 1.1. CCGTTGTAAA gave a switch fluorescence ratio of 1.12. In the case of CCGTTGTGTC, the switch fluorescence ratio was 1.21. CCGTTTACTT showed a switch fluorescence ratio of 1.33. CCGTTTGGAG showed a switch fluorescence ratio of 1.03. CCGTTTGTGG gave a switch fluorescence ratio of 0.975. In the case of CCTAACGTAT, the switch fluorescence ratio was 1.23. For CCTAAGGGTC, the switch fluorescence ratio was 1.07. With CCTAATTAAT the switch fluorescence ratio was 1. For CCTAATTATT, the switch fluorescence ratio was 1.01. CCTAATTCAG was tested, and the switch fluorescence ratio was 1.02. Sequence CCTACCCACG has a switch fluorescence ratio of 1.43. For CCTACCGGCC, the switch fluorescence ratio was 1.5. CCTACCGGGA showed a switch fluorescence ratio of 1.48. For CCTACTCATA, the switch fluorescence ratio was 3.63. With CCTACTTAGT the switch fluorescence ratio was 1.07. In the case of CCTAGATAGA, the switch fluorescence ratio was 1.04. Work on CCTAGCCCTC yielded a switch fluorescence ratio of 1.2. Sequence CCTAGGTCTA has a switch fluorescence ratio of 1.01. In the case of CCTAGTCGTC, the switch fluorescence ratio was 0.979. Work on CCTATACGTT yielded a switch fluorescence ratio of 1.03. CCTATATCCT gave a switch fluorescence ratio of 1.05. For CCTATGCGAG, the switch fluorescence ratio was 1.61. CCTATGGCCA was tested, and the switch fluorescence ratio was 1.02. In the case of CCTATGGGCT, the switch fluorescence ratio was 0.992. CCTATTAATT gave a switch fluorescence ratio of 0.998. CCTCAATTGG gave a switch fluorescence ratio of 1.33. With CCTCACAGCG the switch fluorescence ratio was 1.7. For CCTCACATTT, the switch fluorescence ratio was 1.28. In the case of CCTCCATCCT, the switch fluorescence ratio was 1.57. With CCTCGAAGTT the switch fluorescence ratio was 1.07. CCTCGTGGGG showed a switch fluorescence ratio of 1.06. For CCTCTATGCT, the switch fluorescence ratio was 1.97. CCTCTCTGGG showed a switch fluorescence ratio of 0.993. In the case of CCTCTGGAAC, the switch fluorescence ratio was 4.18. For CCTCTGGTG, the switch fluorescence ratio was 1.36. With CCTCTTCATG the switch fluorescence ratio was 1.24. In the case of CCTCTTGGAT, the switch fluorescence ratio was 1.62. Work on CCTGAATGAG yielded a switch fluorescence ratio of 0.973. CCTGAGGTGA was tested, and the switch fluorescence ratio was 0.959. Sequence CCTGATATGG has a switch fluorescence ratio of 1.04. Work on CCTGATGGTC yielded a switch fluorescence ratio of 1.02. Sequence CCTGCCAGGT has a switch fluorescence ratio of 1.51. CCTGCCCTTG gave a switch fluorescence ratio of 1.06. In the case of CCTGCCGGTT, the switch fluorescence ratio was 1.02. For CCTGCTAGTT, the switch fluorescence ratio was 1.04. In the case of CCTGCTTTGT, the switch fluorescence ratio was 0.983. For CCTGGAACTG, the switch fluorescence ratio was 0.961. CCTGGGGTA showed a switch fluorescence ratio of 0.995. With CCTGTAATCA the switch fluorescence ratio was 1.02. CCTGTCGTAA showed a switch fluorescence ratio of 3.45. For CCTGTGACGG, the switch fluorescence ratio was 0.994. For CCTGTTAAGG, the switch fluorescence ratio was 0.938. CCTGTTGCAG gave a switch fluorescence ratio of 1.08. In the case of CCTGTTTCAT, the switch fluorescence ratio was 1.02.
